From the supplement of paper PMC3724861
This is one part of the list.

Test system: T1, Caupolican (Caup) homeodomain DNA-binding domain
T1 sequence: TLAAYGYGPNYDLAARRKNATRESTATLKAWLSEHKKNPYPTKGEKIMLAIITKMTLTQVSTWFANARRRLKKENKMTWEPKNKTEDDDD
Assay: PBM E-score (8-mer, recovered from the published 9-mer minima) (E-score (dimensionless, -0.5 to 0.5)); Drosophila protein; higher = stronger relative binding preference, active = 0.31 or more
Method in brief: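 Caup's homeodomain DNA-binding domain (residues 214-303) was produced by in vitro transcription and translation and applied at 100 nM to custom-designed protein binding microarrays. Each value is an enrichment score giving relative binding preference for a short DNA word; higher means stronger. Published 9-mer scores were the minimum of their two constituent 8-mer scores, and the 8-mer values were recovered from those minima. A cutoff of 0.31 marks candidate binding sequences.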

Sequence | PBM E-score
CTTCAGGC | inactive: -0.205
CGCTAGAG | inactive: -0.149
ATCATTCA | inactive: 0.178
CGATTAGC | inactive: -0.0349
AACGGATC | inactive: 0.112
GCGGATTA | inactive: 0.0244
GCTGCAGC | inactive: -0.261
TAAGGTAA | inactive: 0.081
ACTTTGCT | inactive: 0.0012
CGGGTTAC | inactive: -0.0194
CGAGTGAC | inactive: -0.00498
GAGTAGCC | inactive: -0.112
TCCTTTAA | inactive: 0.008
CCCGCGTC | inactive: -0.154
GTGTCGCA | inactive: 0.176
AATGTGCC | inactive: -0.0817
GGGAGACA | inactive: 0.00931
CCGCGAGC | inactive: -0.208
GCGTTACC | inactive: -0.0921
ATCGTAGG | inactive: 0.00115
CACCAGTC | inactive: -0.0551
GCGACACA | inactive: 0.148
CGTAGATA | inactive: 0.181
CCGGGCAA | inactive: -0.204
AGATTGCA | inactive: 0.0484

Sequence | PBM E-score
ACTGTGGG | inactive: -0.0135
ATATAATG | inactive: 0.223
GGTAAACA | inactive: 0.213
AAATCTGG | inactive: -0.0647
AGCTGAAC | inactive: -0.0556
AAGGGGGC | inactive: -0.238
AGTGAAGC | inactive: -0.0928
GTGATCAC | inactive: 0.126
AATCGACC | inactive: -0.00754
AGTTCCCC | inactive: -0.213
TACTCGAA | inactive: 0.0901
AAAGCATC | inactive: 0.0658
AAGTAAGG | inactive: 0.0246
AGGACTTA | inactive: -0.0147
CCTGCATA | inactive: -0.0836
CCCAGTAC | inactive: 0.0222
GCCCCTCC | inactive: -0.212
AATGGGTA | inactive: 0.124
CGCGGATC | inactive: -0.195
CGCACAGC | inactive: -0.242
AACGGTAT | inactive: 0.0117
AAGAGCGC | inactive: -0.106
GGAACACA | inactive: 0.26
ACCCCCGG | inactive: -0.234
CGGGTAAG | inactive: -0.0951

Sequence | PBM E-score
ACTATCCC | inactive: -0.119
CGTTAAAA | inactive: -0.0507
CATGGAGC | inactive: -0.0084
GCCGTATA | inactive: 0.0675
GCACCTCC | inactive: -0.28
CTTGGAGC | inactive: -0.14
AAAGCGGA | inactive: -0.0838
CGGCCGTC | inactive: -0.185
CATCCGAA | inactive: 0.074
AGGCGGCG | inactive: -0.157
CACTGCCC | inactive: -0.0974
CCCCGCTA | inactive: -0.215
GGTCGTTA | inactive: 0.0219
TCACCAGA | inactive: -0.0464
GGGTAGCA | inactive: -0.177
CCTAACCA | inactive: 0.0546
GCCCAATA | inactive: -0.00456
ATTGTCAC | inactive: 0.224
AGAGACCG | inactive: -0.177
TACAATAA | inactive: 0.245
TACCATAA | inactive: 0.127
AGCGACGA | inactive: -0.0369
GGGACGAC | inactive: -0.115
AAAGGTCA | inactive: -0.0426
ATGTTGCA | ≥ 0.279

Sequence | PBM E-score
GTGCCACA | inactive: -0.0988
CCCGGTAG | inactive: -0.0662
ATCTTACA | inactive: 0.233
TTGGGAAA | inactive: 0.0459
CTCATCCA | inactive: 0.0394
CGTAAAGC | inactive: -0.107
TAATATCA | inactive: 0.177
GACGAGAA | inactive: 0.0608
GGCGCACA | inactive: -0.14
AGAAAAGC | inactive: -0.0456
AGGACACT | inactive: -0.00147
CCAATCGG | inactive: -0.153
TACTAGGA | inactive: 0.165
ACCGAGCC | inactive: -0.0985
CGGCACTA | inactive: -0.123
ACTATTCG | inactive: 0.0513
CTGACATA | inactive: 0.22
CTTTCGTC | inactive: -0.0286
AAATCTTA | inactive: 0.0578
CCGCATAA | inactive: -0.0168
CCAAGAAG | inactive: -0.0481
CGATTCGC | inactive: -0.0138
ACGTAGAC | inactive: 0.0303
GCCGACGA | inactive: -0.104
ACTATAAC | inactive: 0.205

Sequence | PBM E-score
CGAACTAC | inactive: 0.121
AGAGGTCC | inactive: -0.107
CTGAGAGC | inactive: -0.147
AGATGCGC | inactive: -0.0446
ACAGTAGC | inactive: 0.0447
GATTGCAA | inactive: 0.0474
ATGTGGCC | inactive: -0.0518
AGTGTGGC | inactive: -0.152
GGAACCCA | inactive: -0.0548
CATTCCAG | inactive: -0.0271
ATCTTGTC | inactive: 0.308
CGCATGGA | inactive: -0.0924
CATTATGG | inactive: -0.0101
CCTTCGCG | inactive: -0.168
CTAACCGA | inactive: -0.0177
CTCTCTGA | inactive: -0.0681
CATTGTTA | inactive: 0.27
AGAACCAA | inactive: -0.021
ACCCAATC | inactive: -0.0831
CTGGGCGC | inactive: -0.207
AGGATTGA | inactive: 0.0816
CAATTGGG | inactive: -0.0977
AGCAATCG | inactive: 0.124
GACTGGCA | inactive: -0.134
AACGCCAA | inactive: -0.004

Sequence | PBM E-score
GAGTGATA | inactive: 0.0675
AGAAGGAG | inactive: -0.134
ATGGCCGG | inactive: -0.214
CCCGCTCA | inactive: -0.198
AGGCGCAG | inactive: -0.154
TGCTCTAA | inactive: 0.0238
CGCTATGC | inactive: -0.174
GATATATA | inactive: 0.128
CAGTCTAC | inactive: -0.0372
ACTACTTC | inactive: 0.0868
AGGGAAAT | inactive: 0.00808
CGGCAACC | inactive: -0.158
GAATGCTA | inactive: -0.0409
CCTTCATC | inactive: -0.175
GGTATAAA | inactive: -0.0131
TAACATAA | active: 0.327
GACCGCTA | inactive: -0.177
ATTCTGTG | inactive: 0.132
GCCATTCC | inactive: -0.105
ACACCACC | inactive: 0.0972
GGCTTCTA | inactive: -0.0837
CGAAGCTC | inactive: -0.156
TACCACGA | inactive: 0.148
GGACTCGA | inactive: -0.0612
ATTGCGCA | inactive: -0.0488

Sequence | PBM E-score
ATTGGTTC | inactive: 0.0951
ATACGGTC | inactive: -0.0486
CGACACAC | inactive: 0.217
AAGCGAGG | inactive: -0.161
ATGCAGCC | inactive: 0.00431
AGACAGAG | inactive: 0.0189
CGGAATGA | inactive: 0.0236
CAAAACCG | inactive: -0.0536
GATCGAGA | inactive: 0.0375
GACTAAAC | inactive: -0.0493
TCTATACA | inactive: 0.147
CAAGCGTG | inactive: 0.0729
CGTACTAA | inactive: 0.193
AGTGGGCG | inactive: -0.124
AATCCGAC | inactive: 0.0721
GGTGGCCA | inactive: -0.164
GAAAGATA | inactive: 0.0349
ACGCTTCC | inactive: -0.131
ACAATGGA | inactive: 0.181
CGCTCCGA | inactive: -0.147
ACCCCCCA | inactive: -0.272
CGACTGAA | inactive: -0.136
CTGTACTC | inactive: 0.082
CGATTAGA | inactive: 0.105
GGTACCTA | inactive: 0.0649

Sequence | PBM E-score
ATCTTAGG | inactive: -0.15
AACCTCGT | ≥ 0.149
AGACTAGG | inactive: 0.0181
CGGATAGA | inactive: 0.0127
ATCAGATA | inactive: 0.16
GTGGTGGA | inactive: -0.109
CCCACAGA | inactive: -0.0301
ACCGCGGA | inactive: -0.137
ACTACCAA | inactive: 0.167
AGATAACC | inactive: -0.0458
AGTGAGAG | inactive: -0.0405
CAGAGACG | inactive: -0.0652
GCCCAGCA | inactive: -0.229
CGTTGACA | inactive: 0.221
GAAAGAAC | inactive: -0.00858
ACGGGGAC | inactive: -0.169
AGCTTTAC | inactive: -0.0134
AGGAAGAA | inactive: -0.0327
CTTGGCCA | inactive: -0.00859
CGGGTAGC | inactive: -0.229
ATATAGCC | inactive: 0.0657
GCCAGAAC | inactive: -0.0747
CTTGGCAC | inactive: -0.124
ACGTTTGA | inactive: 0.104
AGTTATAG | inactive: 0.0939

Sequence | PBM E-score
ATTACCTA | ≥ 0.0994
CCCAGGCC | inactive: -0.249
AGCTCGAC | inactive: -0.0593
GCGACTAA | inactive: 0.0539
CGGTTGTC | inactive: 0.185
GCCTGTAA | inactive: 0.09
ATATCTAC | inactive: 0.166
ATCTTCCA | inactive: 0.0064
AGTGTCCC | inactive: -0.0039
ATCAGGTC | inactive: 0.0488
GCTCATAA | inactive: -0.0637
AATAATCG | inactive: 0.111
AAAGTGGC | inactive: -0.146
GATGGGTA | inactive: 0.0458
ACCGGTAG | inactive: -0.112
AAACATGA | active: 0.409
TCTCTTAA | ≥ 0.063
GGGCCATA | inactive: -0.148
CTTCGCAA | inactive: -0.125
TATAGCGA | inactive: 0.0118
ACGGATAC | inactive: 0.132
